This note sets out measurements from ChEMBL document CHEMBL4888484, “Replenishing the malaria drug discovery pipeline: Screening and hit evaluation of the MMV Hit Generation Library 1 (HGL1) against asexual blood stage Plasmodium falciparum ,using a nano luciferase reporter read-out” (2022).

About 540 (0.36%) of roughly 150,000 compounds showed an effect of 50% or more. Some of the results follow.

The test has as its system Plasmodium falciparum. As to the kind of experiment: Primary screen in NF54 nanoGlo assay, in single point, at 2uM, 72h; a lower Z score goes with more inhibition. The format is functional, Erythrocyte. The note with it: timepoint 72 hour.
As a reminder, the % Inhibition is the drop in the measured response relative to a control, in per cent. As for `COc1cc(C(=O)N2C[C@@H](CO)C[C@@H](CN3CCOCC3)C2)ccn1`, the “% Inhibition” value was -1% and the Z score came to 0.11.
For `Cc1noc(CCCNC(=O)N(Cc2ccccc2F)C2CCC2)n1`, in that order: -11% and 1.72.
For `COCCN(Cc1ccsc1)C(=O)NC1CCOCC1`, in that order: -11% and 1.21.
For `COc1cccc(CNc2c(C)n(C)n(-c3ccccc3)c2=O)c1O`, in that order: -10% and 1.39.
Take `Cc1cccc(C(=O)Nc2cccc(CCc3nc4ccccc4n3C)c2)c1`: the “% Inhibition” value is on record as -10% and the Z score turned out to be 1.12.
For `Cc1ccc(NCn2c(=S)oc3ccccc32)nc1` the same measures were -37% and 4.29.
For `Cc1n[nH]nc1-c1nc(-c2ccncc2)nn1[C@H]1CCS(=O)(=O)C1` the same measures were -6% and 0.87.
For `COc1cccc(C(=O)NC[C@H]2CCCN(Cc3cccc4cccnc34)C2)c1OC` the same measures were 10% and -1.86.
As to `Cc1nn(C)c(C)c1S(=O)(=O)N[C@@H](C)C1CC1`, the “% Inhibition” value was 9% and the Z score is given as -1.8.
Take `CN(CC1COCCO1)C(=O)CC1(c2cccc(F)c2)CC(=O)N(Cc2cccnc2)C1=O` (stereo not drawn): the “% Inhibition” value is -14% and the Z score was found to be 1.81.
For `COCCN(CCCOc1ccc(C(N)=O)cc1)CCOc1ccccc1F`, the “% Inhibition” value is recorded as 2% and the Z score is -0.37.
For `c1ccc(CCCN2CCCC[C@@H]2Cn2cncn2)cc1` the same measures were -2% and 0.23.
For `Cn1ncc(CN2CCC[C@H](c3n[nH]c(C4CCCCC4)n3)C2)c1C(F)(F)F`, in that order: -10% and 1.34.
For `CCCN(CCC)c1nc(N)nc(C#N)n1`, in that order: -3% and 0.32.
Consider `CN(C)C(=O)c1cnc(-c2ccc3c(c2)CCO3)s1`, for which the “% Inhibition” value is listed as 9% and the Z score is -1.01.
For the compound `O=c1ccc(CN2CCN(c3ccccc3F)CC2)cn1CC1CC1`, the “% Inhibition” value was determined as 2% and the Z score is on record as -0.44.
With `Cc1ccc(C(=O)N2CCC(c3nc(-c4ccc5c(c4)OCO5)no3)CC2)cc1`, the “% Inhibition” value was 6% and the Z score is -0.87.
For `CCCN(Cc1nccn1C)C(=O)Nc1ccc2c(c1)O[C@@H](C)C(=O)N2C`, in that order: -8% and 1.1.
For `N#Cc1cccc(C(=O)NC2(Cc3ccccc3Br)CC2)n1`, in that order: -5% and 0.78.
For the compound `CC(NC1CCN(C2CCCCC2O)CC1)c1ccsc1` (stereo not drawn), the “% Inhibition” value was 7% and the Z score is reported as -0.93.
For `CCOC[C@H]1CCN(C(=O)C2CCCCCC2)C1`, in that order: -9% and 1.26.
For `CCCN(CCC)C[C@H](O)COc1c(Cl)cccc1Cl`, in that order: -6% and 0.67.
Take `C[C@@H](Cc1ccco1)NC(=O)NC1CC1`: the “% Inhibition” value was -11% and the Z score is on record as 1.16.
For `COc1ccc(S(=O)(=O)N2CC(C)N(C(=O)N(C)C)C2C)cc1` (stereo not drawn), in that order: -6% and 0.72.
With `CCc1nc(C)ncc1C(=O)OCc1nccn1Cc1ccccc1`, the “% Inhibition” value worked out at 31% and the Z score is listed as -1.06.
Consider `COCc1nncn1C1CCN(C(=O)Cc2ccc(Cl)cc2)CC1`, for which the “% Inhibition” value is listed as -2% and the Z score is 0.43.
For `Cn1ccnc1CN1CCc2[nH]nc(-c3ccc4c(c3)OC(F)(F)O4)c2C1`, in that order: 4% and -0.49.
For `Cc1ccn2c(CNCC3CN(C(=O)c4ccccc4)C4CCN3C4)cnc2c1` (stereo not drawn) the same measures were 4% and -0.71.
For `N#Cc1cccc(N(C(=O)COC[C@H]2CCCO2)C2CCC2)c1` the same measures were -7% and 1.25.
With `CC[C@H](NC(=O)c1ncccc1C)C1CC(O)C1` (stereo partly drawn), the “% Inhibition” value is listed as -15% and the Z score is given as 1.37.
Consider `Cc1ccc(C)c(-n2ncnc2[C@@H]2C[C@@H](O)CN2)c1`, for which the “% Inhibition” value came to 0% and the Z score is -0.04.
For `COc1cccn(CC(=O)N(C)[C@@H](C)c2ccon2)c1=O` the same measures were 1% and -0.09.
As to `Cc1ccc2c(c1)C(c1ccccc1)=NNC(c1ccccc1)=N2`, the “% Inhibition” value is given as -8% and the Z score is listed as 1.03.
`O=C(CCc1ccccc1)Nc1ccc2c(c1)C(=O)N(C1CCCCC1)C2=O`: the “% Inhibition” value was -8% and the Z score was 0.93.
For `Cc1cnc([C@H]2CCN(C(=O)C(C)C)C2)n1Cc1ccc(F)cc1`, in that order: -9% and 1.41.
For `Cn1ncnc1CCNC(=O)c1ccc(C#N)nc1`, in that order: -15% and 1.96.
On to `COC(=O)N[C@@H](CC(C)C)C(=O)Nc1cc(OC)ccc1Cl`, for which the “% Inhibition” value is on record as -7% and the Z score worked out at 0.68.
For `CCCN(C[C@H]1CCCCO1)c1nc(C)nc2c1cnn2C` the same measures were -9% and 0.97.
In the case of `CC[C@H](C)N(CC(=O)N(Cc1ccccc1)Cc1cccs1)C(=O)c1cccc(Cl)c1`, the “% Inhibition” value is listed as 0% and the Z score was found to be 0.02.
For `O=C(O)Cn1cc(NC(=O)c2cc3c(s2)CCCC3)cn1`, in that order: -12% and 2.24.
In the case of `COc1ccc2ccc(O)c(CN3CCCc4cc(S(=O)(=O)N5CCCC5)ccc43)c2c1`, the “% Inhibition” value is recorded as -3% and the Z score was determined as 0.54.
For `CCN(CC)CCNC(=O)c1c(CC2CCCC2)n(CCOC)c(C)cc1=O` the same measures were -1% and 0.28.
For `CCOc1ccc(N2CC(C(=O)N3CC(C(=O)OC)Oc4ccccc43)CC2=O)cc1` (stereo not drawn) the same measures were 3% and -0.3.
For `CCc1nnc(CN(C)C(=O)c2cnc(-c3ccc(C)cc3)nc2O)o1` the same measures were -8% and 1.47.
